# This is one part of the list.
# System: PfHDP1 homeodomain (GST-tagged)
# Assay: gcPBM binding intensity (ln(normalized median fluorescence intensity)); higher = stronger DNA binding
# In short: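 For binding intensity, the highest Masliner-normalised natural-log median intensity across replicate spots of either probe orientation was taken. Protein bound to the array was stained with Alexa488 anti-GST antibody and scanned at 488 nm. The protein, GST-tagged P. falciparum DNA-binding domains from E. coli at about 25 μg on average, had been applied for 1 h to an Agilent 4 × 180k array of primer-extended double-stranded 36-bp intergenic genomic probes and negative controls.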
row,Sequence,gcPBM binding intensity (ln)
1,AAAAAAGAAATAAGGATACACACTATTGATAAAAGT [CACACA_site272],6.67
2,CCAGTGTGCACCTTGCGTACATATTAAATTAATTAA [XGTACX_site3729],10.4
3,TTTTTTAAATTTAAAGTGCATTATTATATATTTGTA,8.5
4,GGATATATAAGATACACACACAAATTAAATATAAAA [CACACA_site7333],6.81
5,TAATATATAAATATATGTACATAATTAATAGGATAT [XGTACX_site237],6.87
6,TATTCCTAATTTAAAAGTACATATATATATATATAT [XGTACX_site3008],9.24
7,TTGTTTCAAAATTAAACACACACAAAAAAAAAAAAA [CACACA_site8856],6.03
8,CTTATAATATTACGGGTGCTATAAATACATTATATT,6.67
9,TAAATCAAAAACAACAAGTCATATTAAAGATGGTAT [CACACA_negctrl_site1321],6.68
10,TATATTTATATCATCACACATTTTTTTTTTCTTTTT [CACACA_site6150],6.23
11,AAGGAAAACAGTAGGTGTACCAAACGTCCTAGGAAC [XGTACX_site3659],6.46
12,AAAAAAAAAAAAAAGAGTACTTTTTTCACATTCATC [XGTACX_site8795],6.35
13,AATATATGTTAAAATGGTACACAATTATTATATATT [XGTACX_site6407],6.42
14,TAAAATGAATAAAATTGTACTTAATAATATTTTAAA [XGTACX_site5532],6.03
15,TTTTCTTTTTTCTTTTTAACTCTTACATAATAGGTG [CACACA_negctrl_site642],6.27
16,AAAAAAAAAAAAATTACACACATACCTATAAGAATA [CACACA_site7097],6.46
17,TCAAAATGTGACATAAAAGAAAAAAAAAAAAAAAAA [CACACA_negctrl_site1092],6.22
18,AAAATGTATATTGGCGCATGTAAACAAATACTATAC [TGCATGCA_site385],7
19,GATAATAATAAGTGTACACATATATTTAGAAGAGTA [CACACA_site4245],7.19

row,Sequence,gcPBM binding intensity (ln)
1,TGGGGTATTAAAAAAACACACAAAAAAAATATAAAG [CACACA_site1915],6.48
2,TTTTTTTTTCTGTATACACACAAAATTTATTTTTTA [CACACA_site2873],6.68
3,TTAATAACGTAATGTAAATGTTTCATACCCTTTTTT [CACACA_negctrl_site988],6.36
4,ATATATATGTATGTATATATATATATATATGTTTGA [CACACA_negctrl_site107],6.67
5,ATAAAATAAAAACATGCACACTTTATTTTTTTTAAG [CACACA_site5545],8.84
6,AAAGAAGGGGGGGGAAAAAAAAATAAAAGAGGAAAA [XGTACX_negctrl_site92],7.61
7,ATATATAATAATTGTAGTACAATTAATAAATAAAAT [XGTACX_site3840],6.54
8,TATATATATATAATTTGTACACACAAATATGCATAT [XGTACX_site7297],9.02
9,TCCTCATTTTATCATACACACTTGTTTATATGTGTG [CACACA_site6548],6.72
10,ATACGATTGCAGTCAAAAAGGAAAATATAAAAAAAG [XGTACX_negctrl_site124],6.74
11,TTATCATTTTAAATCACACACATATATAAATATGTA [CACACA_site7359],6.45
12,AATATTTATAAATTTACACACACACCCGTGAACATA [CACACA_site1910],6.88
13,TTATTAAATATAAATATGTATCTTTTATGTTATATT [CACACA_negctrl_site306],6.13
14,AGACCTATGATATATACACACATATAAATAAATATA [CACACA_site6725],6.6
15,AATGTTAAACTATGATGTACGGTTAAAAATATAATT [XGTACX_site893],6.43
16,AAAAAAAAAAGACACACACACATAGACCTCCAATAG [CACACA_site7646],6.57
17,TATTTTACGACATACCAAAAAAAAAAAAAAAAAATA [CACACA_negctrl_site1254],5.85
18,TAAATCCGCAGGCACACACACATATTAATAAAAAAA [CACACA_site3991],6.4
19,AATGATTTTGATTAACGTACGTACAAATATATATAT [XGTACX_site6604],7.82

row,Sequence,gcPBM binding intensity (ln)
1,TATATATTATATAAATAAATAAATATATATATTTAT [TGCATGCA_negctrl_site270],6.27
2,AAATTTAGTAAAAAATGTACGTAAAATGTAAAATAT [XGTACX_site1314],6.84
3,AAGGTAAACGGACACACACACATACAAAAAAAAAAA [CACACA_site5961],6.48
4,ATACTAACATTTTTTTGTACATATAACTATAAAATA [XGTACX_site1033],6.7
5,TGATATTATAGATATACACACATGTATGTATTTATA [CACACA_site6758],6.44
6,ATCGGTAATATTAACACACACATTTATTTATATTTA [CACACA_site6638],6.8
7,TTTTATTATATGGAGGTGCATATATAATAATATAAT [GTGCAC_site9477],9.07
8,ATGTATGTAATAAAAAGTACATATGTTCATAATAAA [XGTACX_site842],6.53
9,TTCTTTTTAAATATACTAATTATGTATAAAACAGAA [GTGCAC_negctrl_site131],6.24
10,TTTTATAAATATTTTTGTACACATTTAAATATTATT [XGTACX_site4973],6.78
11,TTTTCATATATTTATTGTACATATTACATATATAAT [XGTACX_site2425],6.84
12,AGAGAGAACGGTATAACATGCAATAAATTTCAGAAG [TGCATGCA_site423],6.56
13,TTTTTTTAATAAAAGTGTACCAAATTATATACACAT [XGTACX_site6811],6.48
14,ATTTATAAATCAAAGTGTACATATGTTTTATTTTTT [XGTACX_site804],6.78
15,AAATGGAGTTAATATTGTACATATATATATATATAT [XGTACX_site5452],9.44
16,TTTTTCTATTCCATTCAACACACAAAAATGTATGCT [CACACA_site8268],6.5
17,AAAGTTTTAAGAAAATGTACATAAGTATACATATAT [XGTACX_site1293],6.54
18,TTTGGGATAAAACAAAGTACTAACAAAATATATAAT [XGTACX_site8240],6.85
